Experimental data taken from PubChem BioAssay AID2451 (National Center for Advancing Translational Sciences (NCATS), 2010).
Screen size: about 290,000 compounds; about 2,100 (0.72%) were called active. Inconclusive results, whose numbers are uncertain, are shown with a selection of clear calls. Calls follow the shape of the dose curve; as a rule, active = well fitted inhibition curve with a large enough effect; inconclusive = small, poorly fitted or top-dose-only effect, or effect the other way; inactive = flat fitted curve, though single readings scatter. Where the call is inconclusive, the potency comes from a doubtful curve fit.
Also: nearly all actives have a fitted effect of over 55% in size.
Potency is read from the fitted curve at half-maximal effect; tags tell the direction and shape of the fitted curve.

Each compound was assayed against Fructose-bisphosphate aldolase (Giardia intestinalis (strain ATCC 50803 / WB clone C6)) (UniProt A8B2U2) (assay: qHTS Assay for Inhibitors of Fructose-1,6-bisphosphate Aldolase from Giardia Lamblia). Details: purified Giardia FBPA; series mostly up to 59.6 µM.
Chain of UniProt A8B2U2 (A8B2U2 whole entry, looked up): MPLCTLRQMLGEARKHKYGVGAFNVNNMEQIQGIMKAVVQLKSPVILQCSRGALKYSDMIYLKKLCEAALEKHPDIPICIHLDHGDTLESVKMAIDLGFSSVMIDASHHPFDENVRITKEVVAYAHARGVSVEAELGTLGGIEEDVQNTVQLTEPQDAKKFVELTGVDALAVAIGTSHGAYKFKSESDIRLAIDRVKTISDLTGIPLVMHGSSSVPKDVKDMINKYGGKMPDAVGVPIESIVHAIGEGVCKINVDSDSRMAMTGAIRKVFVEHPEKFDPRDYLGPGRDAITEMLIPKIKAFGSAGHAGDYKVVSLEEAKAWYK
In short: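 Giardia FBPA (40 nM reagent) was preincubated 10 min at RT with compound (up to 57.5 uM final), then substrate plus GAPDH/TPI/NAD/arsenate coupling system with diaphorase/resazurin was added; resorufin fluorescence (525/598 nm) was read after 20 min.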
For `COc1ccccc1Nc1ncc(C(=O)N2CCC(C(N)=O)CC2)c2ccccc12`, the Potency was inconclusive: 17.7 µM [inhibitor, single point]. For `O=C(CNC1CC1)Nc1cc(C(F)(F)F)ccc1Cl`, the Potency was active: 7.92 µM. `CCOc1ccc(CN(C)CCc2ccccn2)cc1` was tested, and the Potency was inconclusive: 12.6 µM [inhibitor, partial curve]. `CCOC(=O)c1sc(Nc2nc3c(OC)cccc3s2)nc1C` was tested, and the Potency was “inactive”. `COc1ccc(-n2c(NC(=O)c3ccco3)c(C#N)c3nc4ccccc4nc32)cc1` was tested, and the Potency was inconclusive: 0.63 µM [inhibitor, full curve]. `Cc1ccc2cc(CN(CCN3CCOCC3)Cc3nnnn3Cc3ccco3)c(=O)[nH]c2c1C` was tested, and the Potency was inconclusive: 22.4 µM [inhibitor, partial curve]. For `CCN(CC)C(=O)CSc1nc2cc3c(cc2c(=O)n1CCCC(=O)NCCc1ccc(OC)c(OC)c1)OCO3`, the Potency was “inactive”. For `O=C(Nc1nccs1)c1ccccn1`, the Potency was active: 17.7 µM. For `COC1=C/C(=C/c2c(N)n3nc(CC(=O)N4CCCC4)sc3nc2=O)C=CC1=O`, the Potency was inconclusive: 25.1 µM [inhibitor, partial curve]. For `Cc1ccc(C(=O)N2CCN(Cc3ccc4c(c3)OCO4)CC2)c(Cl)c1`, the Potency was “inactive”. With `CCOC(=O)C(Sc1ncc(C#N)c(N)n1)C(C)C` (configuration not stated) the Potency was inconclusive: 14.1 µM [inhibitor, partial curve]. With `Nc1nc2ccc(S(=O)(=O)c3ccc4nc(N)sc4c3)cc2s1` the Potency was “inactive”. In the case of `CC1CCC/C=C/C(=O)c2c(O)cc(O)cc2CC(=O)O1` (configuration not stated), the Potency is reported as inconclusive: 15.8 µM [inhibitor, single point]. `COc1ccc(OC)c(Nc2nc(=O)c3cccnc3s2)c1` was tested, and the Potency was inconclusive: 12.6 µM [inhibitor, partial curve]. For `COc1ccc(-c2cn3cc(Cl)ccc3n2)cc1OC`, the Potency was inconclusive: 15.8 µM [inhibitor, partial curve]. With `O=c1c2ccccc2oc2cc(O)c(C3COCC(CO)C(O)C(O)C3O)c(O)c12` (configuration not stated) the Potency was inconclusive: 9.98 µM [inhibitor, full curve]. With `Cc1ccc(NC(=O)NCC(c2cccnc2)N2CCOCC2)cc1` (configuration not stated) the Potency was inconclusive: 7.06 µM [inhibitor, single point]. `c1ccc(-c2nc3c(ccc4ccccc43)[nH]2)nc1` was tested, and the Potency was “inactive”. `NC(=NCc1ccccc1)c1cccc([N+](=O)[O-])c1` was tested, and the Potency was inconclusive: 28.2 µM [inhibitor, single point]. In the case of `N#C/C(=C\c1ccc(OCc2cccc(C(=O)O)c2)cc1)C(=O)NCc1ccco1`, the Potency is reported as “inactive”. With `O=C(O)CCc1n[nH]c(=S)[nH]c1=O` the Potency was inconclusive: 1.58 µM [inhibitor, full curve]. For `Cc1ccc(S(=O)(=O)CCC(=O)Nc2nc(-c3ccncc3)cs2)cc1`, the Potency was “inactive”. With `CN(C)c1ccc(C(=S)N2CCN(Cc3ccccc3)CC2)cc1` the Potency was active: 6.29 µM. For `CCOC(=S)NC(=O)c1sc2ccccc2c1Cl`, the Potency was inconclusive: 11.2 µM [inhibitor, partial curve]. In the case of `COc1cccc(OC)c1OCCCN1CCC(Cc2ccccc2)CC1`, the Potency is reported as inconclusive: 44.7 µM [inhibitor, partial curve, poor fit]. `CCCCn1c(SCC(=O)Nc2cccc(OC)c2)nc2ccc(N3CCOCC3)cc2c1=O` was tested, and the Potency was inconclusive: 3.54 µM [inhibitor, full curve]. For `COC(=O)CSc1nc2sc3c(c2c(=O)n1-c1ccc(OC)cc1)CCN(C)C3`, the Potency was inconclusive: 39.8 µM [inhibitor, single point]. For `COc1ccccc1CNC(=O)[C@@H](NC(=O)C1CCN(C(=O)[C@@H]2CCCN2)CC1)C(C)C`, the Potency was inconclusive: 8.91 µM [inhibitor, partial curve]. In the case of `COCCn1nnnc1C(c1cc2ccc(OC)cc2[nH]c1=O)N1CCc2ccccc2C1` (configuration not stated), the Potency is reported as inconclusive: 9.98 µM [inhibitor, partial curve]. In the case of `Cc1cc(C)n(-c2nc3ccccc3c(=O)n2OCc2ccc(Cl)cc2)n1`, the Potency is reported as “inactive”. For `Cc1cccc2nc(CSc3nc4ccccc4o3)cn12`, the Potency was inconclusive: 15.8 µM [inhibitor, single point]. For `CC1(C)OCC(CSC2=C(SCC3COC(C)(C)O3)C(=O)c3ncccc3C2=O)O1` (configuration not stated), the Potency was active: 1.77 µM. `Cc1c(C(C)(C)C)c(C=S)n2ccccc12` was tested, and the Potency was “inactive”. In the case of `Cc1ccc(S(=O)(=O)NC(=O)NN2CCCCCC2)cc1`, the Potency is reported as inconclusive: 17.7 µM [inhibitor, single point]. With `CCc1ccc(C2NC(c3ccc(CC)cc3)C([N+](=O)[O-])C(C)(C)C2[N+](=O)[O-])cc1` (configuration not stated) the Potency was “inactive”. In the case of `COc1cccc(C(Nc2ccccn2)c2c(NC(=O)c3ccco3)sc(C)c2C)c1` (configuration not stated), the Potency is reported as “inactive”. `Cc1cccc(/C=N/NC(=O)c2cc(Br)ccc2O)n1` was tested, and the Potency was inconclusive: 39.8 µM [activator, single point]. For `CN(C)c1cccc2c1c(NC(=O)c1ccc(F)cc1)nn2C`, the Potency was inconclusive: 15.8 µM [inhibitor, single point]. `Clc1ccc(-n2cc(COCc3ccccc3)nn2)cc1` was tested, and the Potency was “inactive”. For `O=C(CCCC(=O)N1CCc2ccccc21)N1CCc2ccccc21`, the Potency was “inactive”. For `O=C(c1cnccn1)N1CCC2(CCCN(Cc3nccs3)C2)CC1`, the Potency was “inactive”. With `Cc1sc2ccccc2[n+]1CC(=O)O` the Potency was inconclusive: 35.4 µM [inhibitor, single point]. For `CCN1CCN(CC(c2ccccc2)c2ccccc2)CC1`, the Potency was inconclusive: 20 µM [inhibitor, partial curve]. With `CC(CCN1CCN(c2ccccc2)CC1)c1ccccc1` (configuration not stated) the Potency was inconclusive: 14.1 µM [inhibitor, partial curve]. In the case of `Cc1cc(/C=C2/C(=N)N3C(=NC2=O)SN=C3S(C)(=O)=O)c(C)n1-c1ccccc1F`, the Potency is reported as inconclusive: 17.7 µM [activator, single point]. With `CO/N=C(/C(=O)NC1C(=O)N2C(C(=O)O)=C(CSc3nc(=O)c(O)nn3C)CSC12)c1csc(N)n1` (configuration not stated) the Potency was inconclusive: 15.8 µM [inhibitor, partial curve]. For `COC(=O)CCCC1=CC2=CC(=O)C(C)(OC(=O)c3cccs3)C(=O)C2=CN1c1ccccc1` (configuration not stated), the Potency was inconclusive: 1.26 µM [inhibitor, partial curve]. In the case of `O=C1CCCC(O)=C1N=Nc1c(Cl)cc(C(F)(F)F)cc1Cl`, the Potency is reported as inconclusive: 19.9 µM [inhibitor, partial curve]. In the case of `CCOC(=O)c1cc2n(c1N)-c1ccccc1C2=O`, the Potency is reported as inconclusive: 14.1 µM [inhibitor, partial curve]. For `COC(=O)C1=C(C)OC(N)=C(C#N)C1c1cccnc1` (configuration not stated), the Potency was inconclusive: 31.5 µM [inhibitor, single point]. For `CC(C)(C)NC(=O)CSc1nc2ccc(Nc3nc(N4CCOCC4)nc(N4CCOCC4)n3)cc2s1`, the Potency was “inactive”. `Cn1c(=O)c2c(nc(CN3CCc4ccccc4C3)n2Cc2cccc(Cl)c2)n(C)c1=O` was tested, and the Potency was inconclusive: 15.8 µM [inhibitor, partial curve]. In the case of `CN(C=[N+](C)C)c1cccc2c1C(=O)c1ccccc1C2=O`, the Potency is reported as inconclusive: 12.6 µM [inhibitor, partial curve]. `O=C(Nc1ccc2c(c1)OCCO2)c1cccnc1` was tested, and the Potency was “inactive”. `COc1cccc(CNc2nn[nH]n2)c1OC` was tested, and the Potency was inconclusive: 25.1 µM [inhibitor, partial curve]. `C/C(=N\NC(=O)c1nnn(-c2nonc2N)c1CN1CCCCC1)c1ccccc1O` was tested, and the Potency was inconclusive: 31.6 µM [inhibitor, single point]. `CCOc1cc(NC(=O)c2ccco2)c(OCC)cc1NC(=O)Cc1cccc(OC)c1` was tested, and the Potency was inconclusive: 17.7 µM [inhibitor, single point]. `Cc1cc(C(=O)CN2CCCC2)c(C)n1-c1ccc(Cl)cc1` was tested, and the Potency was “inactive”. In the case of `CCOc1ccc(C2Nc3cccc4cccc(c34)N2)cc1OC`, the Potency is reported as inconclusive: 19.9 µM [inhibitor, single point]. In the case of `N#C/C(=C\c1cccs1)C(=O)c1ccccc1Cl`, the Potency is reported as inconclusive: 17.7 µM [inhibitor, single point]. In the case of `COC(=O)c1ccc(COC(=O)c2cccn2C)o1`, the Potency is reported as “inactive”. In the case of `O=C(CN1CCOCC1)N/N=C/c1ccc(-c2ccc(C(=O)O)cc2)o1`, the Potency is reported as inconclusive: 44.6 µM [inhibitor, partial curve]. In the case of `C=CSc1sc(Cl)c(N(CC)CC)c1[N+](=O)[O-]`, the Potency is reported as inconclusive: 19.9 µM [inhibitor, partial curve]. For `O=[N+]([O-])c1ccc(CSc2nc3ncc(Br)cc3[nH]2)cc1`, the Potency was “inactive”. For `Cc1ccc(N=Cc2ccc(O)cc2O)cc1F`, the Potency was inconclusive: 35.4 µM [inhibitor, single point]. `COc1cc(NC2c3ccccc3C(=O)N2c2ccc(C)cn2)cc(OC)c1OC` (configuration not stated) was tested, and the Potency was inconclusive: 19.9 µM [inhibitor, partial curve]. For `O=C(CN1C(=O)c2ccccc2S1(=O)=O)c1ccc(O)c(O)c1`, the Potency was inconclusive: 17.7 µM [inhibitor, partial curve, poor fit]. In the case of `O=C(O)c1ccccc1Nc1ccc(CCc2ccc(Cl)c(Cl)c2)cc1`, the Potency is reported as inconclusive: 15.8 µM [activator, partial curve]. For `CCOc1ccc(NCc2nnc(SCC(=O)Nc3cc(C)on3)n2-c2ccccc2OC)cc1`, the Potency was inconclusive: 15.8 µM [inhibitor, single point]. With `O=C(NN1CCOCC1)c1cccc(Cl)c1` the Potency was “inactive”. In the case of `Cc1ccc(C(=O)NCC(=O)NCCCc2ccccc2)s1`, the Potency is reported as “inactive”. For `COc1ccc(NC2CCCN(C(=O)c3ccc4nc(C)c(C)nc4c3)C2)cc1OC` (configuration not stated), the Potency was inconclusive: 15.8 µM [inhibitor, partial curve].
